In the supplement of paper PMC9135407:
Where “and” joins values, the source holds several entries; their conditions need not be identical. Equal values may be shown once. Where a name gives a salt, the structure may show the parent alone. Out of some 5,800 compounds screened, about 620 (11%) showed activity.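 How the source made its calls: active = score above a cut-off or among the top three wells of a plate; in these data no inactive exceeds 0.85.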 The list shows a part of the results, in another mix than the full data.

Tested on: primary human hepatic stellate cells (donor 1)
Assay: scaled lipid accumulation score (0 = DMSO-like, 1 = nortriptyline-like); higher = stronger HSC inactivation (lipid re-accumulation), active = hit call of the paper
Conditions: 48 h
[1] = library stock concentration: 10 mM
[2] = library stock concentration: 80 uM
[3] = library stock concentration: 400 uM
[4] = library stock concentration: 2 mM
[5] = library stock concentration: 1 mM
[6] = library stock concentration: 3.33 mM
[7] = library stock concentration: 6.4 mM

COC(=O)C1=C(C)NC(C)=C(C(=O)OC)C1c1cccc(NC(=O)NCCCN2CCC(c3cccc(OC)c3)CC2)c1
scaled lipid accumulation score [1]: inactive: 0.68

O=C(O)CCNc1cc(N2CCc3ccccc3CC2)nc(-c2ccccn2)n1
scaled lipid accumulation score [2]: inactive: ≤ 0
scaled lipid accumulation score [3]: inactive: ≤ 0
scaled lipid accumulation score [4]: inactive: ≤ 0
scaled lipid accumulation score [1]: inactive: ≤ 0

CSC(N)=NCCC[C@@H](N)C(=O)O [S-methyl-L-Thiocitrulline (hydrochloride)]
scaled lipid accumulation score [5]: inactive: ≤ 0

C=CC[C@@H]1/C=C(\C)C[C@H](C)C[C@H](OC)[C@H]2O[C@@](O)(C(=O)C(=O)N3CCCC[C@H]3C(=O)O[C@H](/C(C)=C/[C@@H]3CC[C@@H](O)[C@H](OC)C3)[C@H](C)[C@@H](O)CC1=O)[C@H](C)C[C@@H]2OC
scaled lipid accumulation score [5]: inactive: 0.047
scaled lipid accumulation score (library stock concentration: 6.2 mM): inactive: ≤ -0.012
scaled lipid accumulation score [1]: inactive: ≤ 0

C=CC[C@@H]1/C=C(\C)C[C@H](C)C[C@H](OC)[C@H]2O[C@@](O)(C(=O)C(=O)N3CCCC[C@H]3C(=O)O[C@H](/C(C)=C/[C@@H]3CC[C@@H](O)[C@H](OC)C3)[C@H](C)[C@@H](O)CC1=O)[C@H](C)C[C@@H]2OC [Tacrolimus (FK506)]
scaled lipid accumulation score [6]: inactive: 0.015
scaled lipid accumulation score [1]: inactive: 0.062

CN(C)Cc1cccc(N=C(c2ccccc2)c2c(O)[nH]c3cc(C(N)=O)ccc23)c1
scaled lipid accumulation score [2]: inactive: ≤ -0.001
scaled lipid accumulation score [3]: inactive: ≤ -0.001
scaled lipid accumulation score [4]: inactive: ≤ -0.001
scaled lipid accumulation score [6]: inactive: ≤ 0
scaled lipid accumulation score [1]: inactive: 0.659 and inactive: 0.686

NC[C@H]1O[C@H](O[C@H]2[C@H](O[C@@H]3O[C@H](CO)[C@@H](O)[C@H]3O)[C@@H](O)[C@H](N)C[C@@H]2N)[C@H](N)[C@@H](O)[C@@H]1O [Ribostamycin sulfate]
scaled lipid accumulation score [1]: inactive: ≤ -0.027

NC[C@H]1O[C@H](O[C@H]2[C@H](O[C@@H]3O[C@H](CO)[C@@H](O)[C@H]3O)[C@@H](O)[C@H](N)C[C@@H]2N)[C@H](N)[C@@H](O)[C@@H]1O [Ribostamycin sulfate salt]
scaled lipid accumulation score: inactive: ≤ 0

O=Nc1c(-c2c(O)[nH]c3ccccc23)[nH]c2ccccc12 [Indirubin-3'-monoxime]
scaled lipid accumulation score [6]: inactive: 0.086
scaled lipid accumulation score (library stock concentration: 18 mM): inactive: 0.142

O=Nc1c(-c2c(O)[nH]c3ccccc23)[nH]c2ccccc12 [Indirubin-3'-oxime]
scaled lipid accumulation score [1]: inactive: 0.592 and inactive: 0.041

Cc1ccc(C(=O)c2cc(O)c(O)c([N+](=O)[O-])c2)cc1 [Tolcapone]
scaled lipid accumulation score [6]: inactive: ≤ 0
scaled lipid accumulation score (library stock concentration: 7.3 mM): inactive: ≤ -0.006
scaled lipid accumulation score [1]: inactive: 0.036

COc1ccc2[nH]cc(CCNC(C)=O)c2c1 [Melatonin]
scaled lipid accumulation score: inactive: ≤ 0
scaled lipid accumulation score [6]: inactive: ≤ 0
scaled lipid accumulation score (library stock concentration: 8.6 mM): inactive: ≤ -0.006
scaled lipid accumulation score [1]: inactive: ≤ 0 and inactive: ≤ -0.055 and inactive: ≤ -0.001

O=C([O-])c1ccccc1O.[Na+] [Sodium salicylate]
scaled lipid accumulation score [6]: inactive: ≤ 0
scaled lipid accumulation score [1]: inactive: ≤ -0.001 and inactive: ≤ 0

CN1C2CCCC1CC(NC(=O)c1nn(C)c3ccccc13)C2 (stereo not drawn) [Granisetron]
scaled lipid accumulation score [7]: inactive: ≤ -0.006

CN1C2CCCC1CC(NC(=O)c1nn(C)c3ccccc13)C2 (stereo not drawn)
scaled lipid accumulation score [1]: inactive: ≤ 0

CN1C2CCCC1CC(NC(=O)c1nn(C)c3ccccc13)C2 (stereo not drawn) [Granisetron hydrochloride]
scaled lipid accumulation score [1]: inactive: 0.034

COc1cc2c(Oc3ccc4[nH]c(C)cc4c3F)ncnc2cc1OCCCN1CCCC1 [Cediranib]
scaled lipid accumulation score [4]: active: 1.06

CC(C)N1CCN(c2ccc(OCC3COC(Cn4cncn4)(c4ccc(Cl)cc4Cl)O3)cc2)CC1 (stereo not drawn) [Terconazole]
scaled lipid accumulation score: inactive: 0.168

Clc1ccc2c(c1)N=C(N1CCNCC1)c1ccccc1N2 [N-Desmethylclozapine]
scaled lipid accumulation score [1]: active: 0.941

O=C(NCCNCC(O)COc1ccc(O)cc1)N1CCOCC1 (stereo not drawn) [Xamoterol hemifumarate]
scaled lipid accumulation score: inactive: ≤ 0
scaled lipid accumulation score (library stock concentration: 5.9 mM): inactive: ≤ -0.006
scaled lipid accumulation score [1]: inactive: ≤ 0

N=C(N)c1ccccc1 [Benzamidine hydrochloride]
scaled lipid accumulation score [1]: inactive: 0.009

CCN(Cc1ccncc1)C(=O)C(CO)c1ccccc1 (stereo not drawn) [Tropicamide]
scaled lipid accumulation score: inactive: ≤ 0
scaled lipid accumulation score [6]: inactive: ≤ 0
scaled lipid accumulation score (library stock concentration: 7 mM): inactive: ≤ -0.006 and inactive: ≤ 0
scaled lipid accumulation score [1]: inactive: ≤ 0 and inactive: 0.018

Cc1ncc([N+](=O)[O-])n1CCO
scaled lipid accumulation score [1]: inactive: ≤ 0

Cc1ncc([N+](=O)[O-])n1CCO [Metronidazole]
scaled lipid accumulation score: inactive: ≤ 0
scaled lipid accumulation score [6]: inactive: ≤ 0
scaled lipid accumulation score [1]: inactive: ≤ 0

CCN(CC)CC#CCOC(=O)C(O)(c1ccccc1)C1CCCCC1 (stereo not drawn) [Oxybutynin chloride]
scaled lipid accumulation score: inactive: 0.397
scaled lipid accumulation score [6]: inactive: 0.234
scaled lipid accumulation score (library stock concentration: 5.1 mM): inactive: 0.317
scaled lipid accumulation score [1]: inactive: 0.48

OC(CCN1CCCCC1)(c1ccccc1)C1CC2C=CC1C2 (stereo not drawn) [Biperiden]
scaled lipid accumulation score [7]: inactive: 0.408

OC(CCN1CCCCC1)(c1ccccc1)C1CC2C=CC1C2 (stereo not drawn) [Biperiden hydrochloride]
scaled lipid accumulation score: inactive: 0.546
scaled lipid accumulation score [1]: inactive: 0.783

OC(CCN1CCCCC1)(c1ccccc1)C1CC2C=CC1C2 (stereo not drawn) [Biperiden HCl]
scaled lipid accumulation score [6]: inactive: ≤ 0
scaled lipid accumulation score [1]: inactive: 0.114

CC(=O)O/N=C1\C(=O)N(Cc2cc(Cl)ccc2Cl)c2ccc(Cl)cc21
scaled lipid accumulation score [6]: inactive: ≤ -0.009
scaled lipid accumulation score [1]: inactive: ≤ 0

C#CCN(C)Cc1ccccc1 [Pargyline (hydrochloride)]
scaled lipid accumulation score [5]: inactive: 0.018

C#CCN(C)Cc1ccccc1 [Pargyline hydrochloride]
scaled lipid accumulation score: inactive: ≤ 0
scaled lipid accumulation score [1]: inactive: ≤ 0

O=c1[nH]c2ccccc2c2ccccc12 [6(5H)-Phenanthridinone]
scaled lipid accumulation score [1]: inactive: ≤ 0
scaled lipid accumulation score (library stock concentration: 25.6 mM): inactive: 0.055

C=CC(=O)Nc1cc(Nc2nccc(-c3cn(C)c4ccccc34)n2)c(OC)cc1N(C)CCN(C)C
scaled lipid accumulation score [4]: active: 1.01

CCCCCC(=O)/C=C/[C@@H]1[C@@H](C/C=C\CCCC(=O)O)[C@@H](O)C[C@H]1O [15-keto Prostaglandin F2.alpha.]
scaled lipid accumulation score [5]: inactive: ≤ 0

CN(C)c1ccc(C(=O)NCCCCCCC(=O)NO)cc1
scaled lipid accumulation score [6]: inactive: 0.341
scaled lipid accumulation score [1]: inactive: 0.617
